# Measured values: the supplement of paper PMC12217912
# Some of the results follow. The full chains were built here from the parent and the listed change. Inactive controls read about 0.05.
# B1: TEV protease; numbered along this chain (parent)
# chain: MGESLFKGPRDYNPISSSICHLTNESDGHTTSLYGIGFGPFIITNKHLFRRNNGTLVVQSLHGVFKVKDTTTLQQHLVDGRDMIIIRMPKDFPPFPQKLKFREPQREERICLVTTNFQTKSMSSMVSDTSCTFPSGDGIFWKHWIQTKDGQCGSPLVSTRDGFIVGIHSASNFTNTNNYFTSVPKNFMELLTNQEAQQWVSGWRLNADSVLWGGHKVFMVKPEEPFQPVKEATQL
# Variants of: B1
# Experiment: raw area under fraction-flipped curve 0-4 h after induction (AUC4h, not background-subtracted), DNA-recorder readout of cleavage of the substrate (dimensionless); higher = more cleavage of the substrate by the protease variant
# Settings: temperature: 34 °C; time window: 0-4 h after rhamnose induction
# Experimental: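 In vivo DNA recorder in E. coli TOP10(DE3) ΔrhaA at 34 °C. Each TEVp single-site mutant (parent TEVp 0) is paired with a single-site variant of the 7-mer TEVs (canonical ENLYFQ|S). The substrate sits between flexible linkers in a Bxb1-sfGFP-TEVs-SsrA fusion, so cleavage stabilises Bxb1 and speeds flipping of a recombination array, read by NGS. The value is the raw area under the fraction-flipped curve over 0-4 h after rhamnose induction (AUC4h), with ≥20 reads per time point. It is not background-subtracted; inactive controls average about 0.047.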
# 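Also: Bxb1 expression induced with 0.2% (w/v) L-rhamnose at OD600 near 0.5, cultures sampled hourly, flipped fraction per protease–substrate barcode pair counted by paired-end Illumina sequencing.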
variant,measurement,value
MGESLFKGPRDYNPISSSICHLTNESDGHTTSQYGIGFGPFIITNKHLFRRNNGTLVVQSLHGVFKVKDTTTLQQHLVDGRDMIIIRMPKDFPPFPQKLKFREPQREERICLVTTNFQTKSMSSMVSDTSCTFPSGDGIFWKHWIQTKDGQCGSPLVSTRDGFIVGIHSASNFTNTNNYFTSVPKNFMELLTNQEAQQWVSGWRLNADSVLWGGHKVFMVKPEEPFQPVKEATQL [L33Q],area with substrate ENLYFQA,0.0905
same,area with substrate ENLYFQC,0.0869
same,area with substrate ENLYFQD,0.0675
same,area with substrate ENLYFQE,0.0323
same,area with substrate ENLYFQH,0.0706
same,area with substrate ENLYFQI,0.0616
same,area with substrate ENLYFQK,0.0554
same,area with substrate ENLYFQL,0.0978
same,area with substrate ENLYFQM,0.0933
same,area with substrate ENLYFQN,0.086
same,area with substrate ENLYFQP,0.0637
same,area with substrate ENLYFQR,0.0645
same,area with substrate ENLYFQS,0.0852
same,area with substrate ENLYFQT,0.0684
same,area with substrate ENLYFQV,0.0729
same,area with substrate ENLYFQW,0.0683
MGESLFKGPRDYNPISSSICHLTNESDGHTTSVYGIGFGPFIITNKHLFRRNNGTLVVQSLHGVFKVKDTTTLQQHLVDGRDMIIIRMPKDFPPFPQKLKFREPQREERICLVTTNFQTKSMSSMVSDTSCTFPSGDGIFWKHWIQTKDGQCGSPLVSTRDGFIVGIHSASNFTNTNNYFTSVPKNFMELLTNQEAQQWVSGWRLNADSVLWGGHKVFMVKPEEPFQPVKEATQL [L33V],area with substrate ENLYFQA,0.074
same,area with substrate ENLYFQC,0.094
same,area with substrate ENLYFQD,0.0623
same,area with substrate ENLYFQE,0.061
same,area with substrate ENLYFQF,0.0794
same,area with substrate ENLYFQG,0.126
same,area with substrate ENLYFQK,0.0441
same,area with substrate ENLYFQL,0.0663
same,area with substrate ENLYFQM,0.0813
same,area with substrate ENLYFQN,0.0815
same,area with substrate ENLYFQQ,0.0779
same,area with substrate ENLYFQR,0.0591
same,area with substrate ENLYFQS,0.0975
same,area with substrate ENLYFQT,0.0774
same,area with substrate ENLYFQV,0.0708
same,area with substrate ENLYFQY,0.0681
MGESLFKGPRDYNPISSSICHLTNESDGHTTSLCGIGFGPFIITNKHLFRRNNGTLVVQSLHGVFKVKDTTTLQQHLVDGRDMIIIRMPKDFPPFPQKLKFREPQREERICLVTTNFQTKSMSSMVSDTSCTFPSGDGIFWKHWIQTKDGQCGSPLVSTRDGFIVGIHSASNFTNTNNYFTSVPKNFMELLTNQEAQQWVSGWRLNADSVLWGGHKVFMVKPEEPFQPVKEATQL [Y34C],area with substrate ENLYFQA,0.103
same,area with substrate ENLYFQC,0.0969
same,area with substrate ENLYFQG,0.106
same,area with substrate ENLYFQI,0.0613
same,area with substrate ENLYFQL,0.056
same,area with substrate ENLYFQP,0.0681
same,area with substrate ENLYFQS,0.0971
same,area with substrate ENLYFQT,0.0595
same,area with substrate ENLYFQY,0.0603
MGESLFKGPRDYNPISSSICHLTNESDGHTTSLYGCGFGPFIITNKHLFRRNNGTLVVQSLHGVFKVKDTTTLQQHLVDGRDMIIIRMPKDFPPFPQKLKFREPQREERICLVTTNFQTKSMSSMVSDTSCTFPSGDGIFWKHWIQTKDGQCGSPLVSTRDGFIVGIHSASNFTNTNNYFTSVPKNFMELLTNQEAQQWVSGWRLNADSVLWGGHKVFMVKPEEPFQPVKEATQL [I36C],area with substrate ENLYFQA,0.0716
same,area with substrate ENLYFQC,0.101
same,area with substrate ENLYFQD,0.0631
same,area with substrate ENLYFQG,0.0497
same,area with substrate ENLYFQK,0.0502
same,area with substrate ENLYFQL,0.0616
same,area with substrate ENLYFQM,0.0854
same,area with substrate ENLYFQN,0.0795
same,area with substrate ENLYFQP,0.0501
same,area with substrate ENLYFQQ,0.061
same,area with substrate ENLYFQS,0.0961
same,area with substrate ENLYFQT,0.0639
same,area with substrate ENLYFQW,0.0654
MGESLFKGPRDYNPISSSICHLTNESDGHTTSLYGNGFGPFIITNKHLFRRNNGTLVVQSLHGVFKVKDTTTLQQHLVDGRDMIIIRMPKDFPPFPQKLKFREPQREERICLVTTNFQTKSMSSMVSDTSCTFPSGDGIFWKHWIQTKDGQCGSPLVSTRDGFIVGIHSASNFTNTNNYFTSVPKNFMELLTNQEAQQWVSGWRLNADSVLWGGHKVFMVKPEEPFQPVKEATQL [I36N],area with substrate ENLYFQA,0.0658
same,area with substrate ENLYFQC,0.0379
same,area with substrate ENLYFQD,0.0327
same,area with substrate ENLYFQF,0.0631
same,area with substrate ENLYFQG,0.0618
same,area with substrate ENLYFQH,0.0429
same,area with substrate ENLYFQI,0.0451
same,area with substrate ENLYFQK,0.0449
same,area with substrate ENLYFQL,0.0396
same,area with substrate ENLYFQM,0.0586
same,area with substrate ENLYFQN,0.0518
same,area with substrate ENLYFQP,0.0528
same,area with substrate ENLYFQQ,0.0553
same,area with substrate ENLYFQR,0.049
same,area with substrate ENLYFQS,0.0689
same,area with substrate ENLYFQT,0.0423
same,area with substrate ENLYFQW,0.0528
same,area with substrate ENLYFQY,0.0689
MGESLFKGPRDYNPISSSICHLTNESDGHTTSLYGILFGPFIITNKHLFRRNNGTLVVQSLHGVFKVKDTTTLQQHLVDGRDMIIIRMPKDFPPFPQKLKFREPQREERICLVTTNFQTKSMSSMVSDTSCTFPSGDGIFWKHWIQTKDGQCGSPLVSTRDGFIVGIHSASNFTNTNNYFTSVPKNFMELLTNQEAQQWVSGWRLNADSVLWGGHKVFMVKPEEPFQPVKEATQL [G37L],area with substrate ENLYFQA,0.0889
same,area with substrate ENLYFQD,0.0616
same,area with substrate ENLYFQG,0.0789
same,area with substrate ENLYFQH,0.0669
same,area with substrate ENLYFQI,0.0577
same,area with substrate ENLYFQK,0.0666
same,area with substrate ENLYFQQ,0.0355
same,area with substrate ENLYFQR,0.0613
same,area with substrate ENLYFQS,0.0753
same,area with substrate ENLYFQT,0.0628
same,area with substrate ENLYFQW,0.0671
MGESLFKGPRDYNPISSSICHLTNESDGHTTSLYGIRFGPFIITNKHLFRRNNGTLVVQSLHGVFKVKDTTTLQQHLVDGRDMIIIRMPKDFPPFPQKLKFREPQREERICLVTTNFQTKSMSSMVSDTSCTFPSGDGIFWKHWIQTKDGQCGSPLVSTRDGFIVGIHSASNFTNTNNYFTSVPKNFMELLTNQEAQQWVSGWRLNADSVLWGGHKVFMVKPEEPFQPVKEATQL [G37R],area with substrate ENLYFQA,0.0573
same,area with substrate ENLYFQD,0.0744
same,area with substrate ENLYFQF,0.0706
same,area with substrate ENLYFQH,0.0712
same,area with substrate ENLYFQK,0.0702
same,area with substrate ENLYFQM,0.058
same,area with substrate ENLYFQN,0.052
same,area with substrate ENLYFQR,0.0556
same,area with substrate ENLYFQS,0.0755
same,area with substrate ENLYFQT,0.0639
same,area with substrate ENLYFQY,0.0579
MGESLFKGPRDYNPISSSICHLTNESDGHTTSLYGIGFKPFIITNKHLFRRNNGTLVVQSLHGVFKVKDTTTLQQHLVDGRDMIIIRMPKDFPPFPQKLKFREPQREERICLVTTNFQTKSMSSMVSDTSCTFPSGDGIFWKHWIQTKDGQCGSPLVSTRDGFIVGIHSASNFTNTNNYFTSVPKNFMELLTNQEAQQWVSGWRLNADSVLWGGHKVFMVKPEEPFQPVKEATQL [G39K],area with substrate ENLYFQA,0.0411
same,area with substrate ENLYFQC,0.0423
same,area with substrate ENLYFQD,0.0539
same,area with substrate ENLYFQF,0.054
same,area with substrate ENLYFQG,0.0216
same,area with substrate ENLYFQH,0.0464
same,area with substrate ENLYFQI,0.0384
same,area with substrate ENLYFQK,0.0414
same,area with substrate ENLYFQL,0.0438
same,area with substrate ENLYFQM,0.0446
same,area with substrate ENLYFQN,0.0508
same,area with substrate ENLYFQP,0.0407
same,area with substrate ENLYFQQ,0.0269
same,area with substrate ENLYFQR,0.0363
same,area with substrate ENLYFQS,0.0465
same,area with substrate ENLYFQT,0.045
MGESLFKGPRDYNPISSSICHLTNESDGHTTSLYGIGFSPFIITNKHLFRRNNGTLVVQSLHGVFKVKDTTTLQQHLVDGRDMIIIRMPKDFPPFPQKLKFREPQREERICLVTTNFQTKSMSSMVSDTSCTFPSGDGIFWKHWIQTKDGQCGSPLVSTRDGFIVGIHSASNFTNTNNYFTSVPKNFMELLTNQEAQQWVSGWRLNADSVLWGGHKVFMVKPEEPFQPVKEATQL [G39S],area with substrate ENLYFQA,0.0416
same,area with substrate ENLYFQC,0.0419
same,area with substrate ENLYFQD,0.0512
same,area with substrate ENLYFQF,0.0538
same,area with substrate ENLYFQG,0.0484
same,area with substrate ENLYFQH,0.0412
same,area with substrate ENLYFQI,0.0379
same,area with substrate ENLYFQK,0.0422
same,area with substrate ENLYFQL,0.0422
same,area with substrate ENLYFQM,0.0478
same,area with substrate ENLYFQN,0.042
same,area with substrate ENLYFQR,0.0382
same,area with substrate ENLYFQS,0.0467
same,area with substrate ENLYFQT,0.0365
same,area with substrate ENLYFQW,0.0425
same,area with substrate ENLYFQY,0.045
